Test results: PMC4336329 (PLoS ONE, 2015)
The campaign covered roughly 310,000 compounds. About 2,200 (0.71%) showed an effect of 50% or more. The effect is printed as a negative number. The list shows a part of the results.

Biological target: human ether-à-go-go-related gene (hERG) potassium channel (human, UniProt Q12809)
Assay: primary screen, population patch clamp on CHO cells stably expressing hERG

Sequence of human ether-à-go-go-related gene (hERG) potassium channel (Q12809 whole entry, looked up): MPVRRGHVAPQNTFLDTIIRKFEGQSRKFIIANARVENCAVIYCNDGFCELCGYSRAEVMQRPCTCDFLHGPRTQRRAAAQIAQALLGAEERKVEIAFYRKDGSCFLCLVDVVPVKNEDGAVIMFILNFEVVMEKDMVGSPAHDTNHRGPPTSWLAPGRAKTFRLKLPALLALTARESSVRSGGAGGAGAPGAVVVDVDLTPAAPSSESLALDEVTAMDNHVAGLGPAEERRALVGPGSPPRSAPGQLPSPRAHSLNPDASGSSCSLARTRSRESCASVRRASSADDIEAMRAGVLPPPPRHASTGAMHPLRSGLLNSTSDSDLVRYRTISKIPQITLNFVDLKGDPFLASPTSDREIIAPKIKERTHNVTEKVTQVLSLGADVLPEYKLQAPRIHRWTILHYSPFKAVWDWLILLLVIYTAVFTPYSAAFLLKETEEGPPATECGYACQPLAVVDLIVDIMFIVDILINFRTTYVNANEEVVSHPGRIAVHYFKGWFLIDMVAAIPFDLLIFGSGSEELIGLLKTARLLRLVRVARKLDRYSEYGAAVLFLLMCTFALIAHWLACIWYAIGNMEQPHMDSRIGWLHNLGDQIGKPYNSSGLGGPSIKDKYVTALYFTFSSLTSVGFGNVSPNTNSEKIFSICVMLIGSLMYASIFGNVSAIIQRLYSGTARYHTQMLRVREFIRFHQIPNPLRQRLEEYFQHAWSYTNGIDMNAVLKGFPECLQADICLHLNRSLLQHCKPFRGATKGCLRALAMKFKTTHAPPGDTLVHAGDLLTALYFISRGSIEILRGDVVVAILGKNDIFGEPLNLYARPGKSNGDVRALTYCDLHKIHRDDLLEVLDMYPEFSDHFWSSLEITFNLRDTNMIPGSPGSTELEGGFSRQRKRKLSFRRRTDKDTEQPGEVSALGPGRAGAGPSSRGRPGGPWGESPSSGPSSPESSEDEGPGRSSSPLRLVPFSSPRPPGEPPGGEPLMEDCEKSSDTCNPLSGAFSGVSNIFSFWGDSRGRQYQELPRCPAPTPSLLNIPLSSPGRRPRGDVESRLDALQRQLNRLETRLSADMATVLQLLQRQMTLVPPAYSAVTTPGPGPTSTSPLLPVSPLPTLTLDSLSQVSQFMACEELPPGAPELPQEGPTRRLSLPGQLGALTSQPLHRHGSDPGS

| SMILES | hERG current change (%, negative = inhibition) at 1uM |
| --- | --- |
| Cc1ccsc1C(=O)Nc1ccc(S(=O)(=O)N2CCOCC2)cc1 | 8.81% |
| COc1ccccc1NC(=O)Nc1c(C)nn(C)c1C | 6.28% |
| COc1ccc([N+](=O)[O-])cc1N(CC(=O)N(C)C)S(C)(=O)=O | 19.1% |
| COc1ccccc1C1CCN(Cc2c(C)[nH]c3ccccc23)CC1 | -11.8% |
| Cc1cc(SCC(=O)c2cc(C)n(C)c2C)nc2ccccc12 | 6.43% |
| COCC1CCN(Cc2nc(-c3cccs3)no2)C1 (centres unmarked) | 13% |
| CCOC(=O)c1ccc(CSC(=N)N)o1 | 13.7% |
| COc1ccc(CCNc2nc(C)cc(C)n2)cc1OC.Cl | 19.2% |
| CCN(CC)C(=O)CSc1nc2ccccc2c(=O)n1CC1CCCCC1 | -10.4% |
| COC(=O)C1=C(c2ccc(-c3ccccc3)c(F)c2)C[C@@H]2CC[C@H]1N2C(=O)N1CCC(O)CC1 | 12.5% |
| O=C(CCC1COc2ccccc2O1)NC1CCCCC1 (centres unmarked) | -5.7% |
| Cl.N=c1n(CCO)c2ccccc2n1Cc1ccccc1 | -0.847% |
| Cc1cccc(C)c1NC(=O)C(=O)NCC1CCCN1S(=O)(=O)c1ccccc1 (centres unmarked) | 9.53% |
| Cc1cc(C)nc(CCNC(=O)C2CCC(=O)N(Cc3ccccc3F)C2)n1 (centres unmarked) | 18.1% |
| C=CCNc1oc(C2CCCC2)nc1C#N | 10.2% |
| Cc1cccc(Nc2cc(C)c3c(O)cccc3n2)c1C | 5.18% |
| Cc1oc(-c2ccccc2F)nc1CS(=O)CC(=O)N1CCC2(CC1)OCCO2 (centres unmarked) | 11.7% |
| Cc1ccc(C(=O)OCc2nnc(-c3ccccc3)o2)o1 | 8.75% |
| COC(=O)C(C(=O)Nc1cc(C)on1)C1CCCCCC1 (centres unmarked) | 11.3% |
| CN1CCN(NC(=O)c2ccc(Cl)s2)CC1 | 13.7% |
| COc1ccc(CN2CC(=O)N(c3cc(Cl)ccc3OC)C2=S)cc1OC | 5.57% |
| CN(CCO)c1nc2c(c(=O)n(Cc3ccc(Cl)cc3)c(=O)n2C)n1C | 15.7% |
| COc1c(F)c(F)c(C(=O)Nc2ccc3oc(-c4ccncc4)nc3c2)c(F)c1F | 14% |

| SMILES | hERG current change (%, negative = inhibition) at 1uM |
| --- | --- |
| COc1ccc(S(=O)(=O)Nc2c(NC3CCCCC3)c3ccccc3oc2=O)cc1 | -8.73% |
| O=c1oc(CCO)cc2ccc(C#Cc3ccsc3)cc12 | 11.1% |
| CCOC(=O)CSc1ccc2nnc(CCNS(=O)(=O)c3ccccc3)n2n1 | 7.83% |
| COc1ccc(NS(=O)(=O)c2cccc(C(=O)O)c2)cc1 | 5.71% |
| CNC(=O)C(=O)Nc1c(O)c2ccccc2[nH]c1=O | 9.54% |
| O=C(Nc1ccncc1)c1ccc2c(c1)S(=O)(=O)c1ccccc1C2=O | 9.37% |
| COCCn1c(SCC(=O)NC(=O)NC(C)C)nc2ccccc21 | 8.66% |
| COc1ccc2cc(C3(C)NC(=O)N(CC(=O)NCc4ccco4)C3=O)ccc2c1 (centres unmarked) | -2.02% |
| CCOc1ccc(NC(=O)CN(C)C(=O)c2ccc(N3CCOCC3)c([N+](=O)[O-])c2)cc1OCC | 5.68% |
| CCC(=NCc1ccccc1)C1=C(O)C(C(=O)OC)C(C)(C)CC1=O (centres unmarked) | -3.45% |
| COc1ccccc1C(=O)NCC(=O)N1CCN(c2ncccn2)CC1 | 11.6% |
| CCOC(=O)c1cc(C#N)c(N2CCN(c3ccc(OC)cc3)CC2)[nH]c1=O | 3.77% |
| COc1cc(OC)c(OC)cc1CNCCc1ccc(OC)c(OC)c1 | -0.186% |
| COc1ccccc1C(=O)NCC(=O)OC(C)C(=O)N(C)C1CCCCC1 (centres unmarked) | 8.39% |
| O=C1OC(c2ccc(F)cc2)=C/C1=C\c1ccc([N+](=O)[O-])o1 | 13% |
| O=C(CNC(=O)c1ccccc1)NCC(O)c1ccc([N+](=O)[O-])cc1 (centres unmarked) | 12.2% |
| COc1ccccc1NC(=O)C1(c2ccccc2)CCCC1 | 9.54% |
| C/C(=C\C(=S)Nc1ccccc1)Nc1ccccc1 | 19.8% |
| CN(CC(=O)Nn1cnnc1)S(=O)(=O)c1ccc(Br)cc1 | 1.34% |
| Cc1cc(Nc2ccccc2C(=O)O)nc2nc3ccccc3c(=O)n12 | -2.75% |
| O=C1C2C3C=CC(C3)C2C(=O)N1/N=C/c1cn(Cc2ccc(F)cc2)c2ccccc12 (centres unmarked) | 15.7% |
| CC/C(=N\NC(=S)NC(C)C)c1ccc(OC(F)F)cc1 | -7.25% |
| CC(=O)OC1CC[C@@]2(C)C(=CC(=O)C3C4CCC(OC(C)=O)[C@@]4(C)CCC32)C1 (some centres unmarked) | 9.68% |

| SMILES | hERG current change (%, negative = inhibition) at 1uM |
| --- | --- |
| Cc1ccc(-n2ncc3c(NCc4ccccc4)ncnc32)cc1 | 7.45% |
| Cc1c(NC(=S)N2CCN(c3cccc(Cl)c3)CC2)c(=O)n(-c2ccccc2)n1C | 9.46% |
| Cc1ccc2oc(C(=O)NC3CCS(=O)(=O)C3)cc(=O)c2c1 (centres unmarked) | 18.6% |
| COc1ccc(N2C(=O)CC(N(C)CCc3ccc(OC)c(OC)c3)C2=O)cc1 (centres unmarked) | 10.1% |
| CCOC(=O)c1ccc(NC(=O)Cn2cnc(S(=O)(=O)N3CCCC3)c2)cc1 | 14.8% |
| O=C(CC(=O)N/N=C\c1ccc([N+](=O)[O-])cc1)NCCc1ccccc1 | 0.942% |
| CCOc1ccc(NC(=O)CN(C)CC(=O)Nc2cccc(Cl)c2C)cc1OCC | 7% |
| CC(C)(C)c1cc(CCC(=O)N2CCCC2)cc(C(C)(C)C)c1O | 14.4% |
| CCOC(=O)C1(CCOc2ccccc2)CCN(Cc2ccc(OC)c(O)c2)CC1 | -88.3% |
| O=c1c2c(nc3nc(NCc4ccccc4Cl)[nH]n13)CCC2 | 14% |
| Oc1ccc(N2CCN(C(=S)NCc3ccccc3)CC2)cc1 | 5.58% |
| COc1ccc(-c2nc(CS(=O)CC(=O)NCCc3ccc(OC)c(OC)c3)c(C)o2)cc1 (centres unmarked) | 10.3% |
| CC(C)N(Cc1nccn1C)C(=O)c1ccc2oc(CCCc3ccccc3)nc2c1 | -14.9% |
| O=C(COC(=O)/C=C/c1ccccc1Cl)NC(=O)Cc1ccccc1 | 13.3% |
| Cc1ccc(C(=O)COC(=O)CNC(=O)COc2ccccc2C)cc1C | 11.1% |
| Fc1ccc(-c2ccc(Nc3cccc(F)c3)nn2)cc1 | 10.6% |
| Cc1nnc2sc(-c3ccco3)nn12 | 3.89% |
| Cc1ccccc1CNC(=O)C1CCC(=O)N(C2CCCCCC2)C1 (centres unmarked) | 14% |
| COc1ccc(CCNC(=O)c2ccc3c(c2)N(Cc2ccc(C)cc2)CCS3)cc1OC | 9.85% |
| CC1(C)C(CC2OCC(CN3CCCCC3)O2)[C@H]2CC[C@@H]1C2 (some centres unmarked) | 14.5% |
| Cc1onc(-c2ccccc2Cl)c1C(=O)Oc1cccc2cccnc12 | 11.1% |
| Cl.OC1(c2ccc(F)cc2)CCNC1 (centres unmarked) | 16.1% |
| CC1CCC(N2CCN(S(=O)(=O)Cc3ccccc3)CC2)CC1 (centres unmarked) | 7.06% |

| SMILES | hERG current change (%, negative = inhibition) at 1uM |
| --- | --- |
| N#CC1(c2ccccc2)CCCN1C(=O)c1ccccc1Cl (centres unmarked) | 9.34% |
| CC(NCc1ccccc1Cl)C(=O)Nc1ccc(C#N)cc1 (centres unmarked) | -8.31% |
| Cn1c(=O)c2c(nc(SCC(=O)Nc3ccccc3)n2C)n(C)c1=O | 5.83% |
| COc1ccc(NC(=O)c2cnc(SCC(=O)NCCc3ccccc3)n(C)c2=O)cc1 | 11.6% |
| CC(C)n1c(O)c(N=Nc2ccc(Cl)nn2)c2ccccc21 | 10.7% |
| O=C(O)Cn1cc(/C=N/Nc2ccc([N+](=O)[O-])cn2)c2ccccc21 | 17.5% |
| Cc1ccc(S(=O)(=O)N2CCN(CC(=O)NC3CCCc4ccccc43)CC2)cc1C.O=C(O)C(=O)O (centres unmarked) | 1.77% |
| CC1Cc2cc(-c3csc(NC(=O)Cc4cccs4)n3)ccc2N1S(C)(=O)=O (centres unmarked) | 0.59% |
| Cc1cc(=O)oc(C)c1C(=O)NCCCN1CCN(c2ccc(F)cc2)CC1 | -29.3% |
| CC(=O)NC(CC(=O)NCCc1ccccc1)c1ccccc1 (centres unmarked) | 10.9% |
| Cc1cc(C(C)(C)C)oc1C(=O)NCCCNC(=O)c1oc(C(C)(C)C)cc1C | 18.2% |
| Cc1cc(C=O)c(C)n1-c1ccc(N2CCOCC2)c([N+](=O)[O-])c1 | 18% |
| COc1cccc(CNS(=O)(=O)c2ccc3c(c2)CC(C)N3C(C)=O)c1 (centres unmarked) | 9.31% |
| COc1ccccc1N1CCN(C(=O)c2cc(-c3ccc4c(c3)OCO4)on2)CC1 | 6.23% |
| Cc1ccc(C(=O)Nc2nc(-c3ccc([N+](=O)[O-])cc3)cs2)o1 | 11.8% |
| COC(=O)c1cccc(NC(=O)c2cccc(OC)c2)c1 | 6.48% |
| COCCNC(=O)/C(C#N)=C/c1c(N2CCN(c3ccccc3)CC2)nc2ccccn2c1=O | 4.77% |
| NC(=O)c1c(-c2cccs2)csc1N | 14.8% |
| Cc1onc(-c2c(F)cccc2Cl)c1C(=O)ONC(=O)c1ccccc1 | 15.1% |
| CCOC(=O)c1c(NC(=O)COC(=O)c2cc(OC)c(OC)cc2[N+](=O)[O-])sc(C)c1C | -9.91% |
